According to patent US20240076343A1:

Key:
Experiment in all cases: cell-based or functional assay
[1] = target: intermediate affinity hIL-2 receptor (hIL-2Rβγ) on TF1+IL-2Rβ cells (human) (UniProt P14784)
[2] = target: high-affinity hIL-2 receptor (IL-2Rαβγ) on NK-92 cells (human) (UniProt P01589)
[3] = target: intermediate affinity hIL-2 receptor complex (IL-2Rβγ) (human) (UniProt P14784)
[4] = target: high-affinity hIL-2 receptor (IL-2Rαβγ) (human) (UniProt P01589)

B1: 1H3-hIgG1-L6-hIL-2 (R38E) (protein)
heavy: EVQLVESGGGLVQPGRSLKLSCAVSGFTFSDYAMAWVRQAPKKGLEWVATISYDGSRTYYRDSVKGRFTISRDNAKITLYLQMDSLRSEDTATYYCARHGSGYFDYWGQGVMVTVSS[not shown - about 450 residues with a human IgG1 Fc and changes]
light: DTVLTQSPALAVSPGERVTISCRASESVRTGVHWYQQKPGQQPKLLIYGASNLESGVPARFSGSGSGTDFTLTIDPVEADDTATYFCQQSWNDPFTFGSGTKLEIKRTVAAPSVFIFPPSDEQLKSGTASVVCLLNNFYPREAKVQWKVDNALQSGNSQESVTEQDSKDSTYSLSSTLTLSKADYEKHKVYACEVTHQGLSSPVTKSFNRGEC
[1]
  Fold change from rhIL-2 (TF1 + IL-2Rβ): 1 fold
[2]
  Fold change from rhIL-2 (NK-92): 7 fold
[3]
  Fold change from rhIL-2 (TF1 + IL-2Rβ), pSTAT5 titration: 0 fold

B2: 1H3-hIgG1-L6-hIL-2 (D20I) (protein)
heavy: EVQLVESGGGLVQPGRSLKLSCAVSGFTFSDYAMAWVRQAPKKGLEWVATISYDGSRTYYRDSVKGRFTISRDNAKITLYLQMDSLRSEDTATYYCARHGSGYFDYWGQGVMVTVSS[not shown - about 450 residues with a human IgG1 Fc and changes]
light: DTVLTQSPALAVSPGERVTISCRASESVRTGVHWYQQKPGQQPKLLIYGASNLESGVPARFSGSGSGTDFTLTIDPVEADDTATYFCQQSWNDPFTFGSGTKLEIKRTVAAPSVFIFPPSDEQLKSGTASVVCLLNNFYPREAKVQWKVDNALQSGNSQESVTEQDSKDSTYSLSSTLTLSKADYEKHKVYACEVTHQGLSSPVTKSFNRGEC
[1]
  Agonistic Activity (TF1 + IL-2Rβ): 50%
  Fold change from rhIL-2 (TF1 + IL-2Rβ): 8 fold
[2]
  Fold change from hIL-2 (NK-92): 12 fold
[3]
  Fold change from rhIL-2 (TF1 + IL-2Rβ), pSTAT5 titration: > 10000 fold

B3: 1H3-hIgG1-L6-hIL-2 (D20S) (protein)
heavy: EVQLVESGGGLVQPGRSLKLSCAVSGFTFSDYAMAWVRQAPKKGLEWVATISYDGSRTYYRDSVKGRFTISRDNAKITLYLQMDSLRSEDTATYYCARHGSGYFDYWGQGVMVTVSS[not shown - about 450 residues with a human IgG1 Fc and changes]
light: DTVLTQSPALAVSPGERVTISCRASESVRTGVHWYQQKPGQQPKLLIYGASNLESGVPARFSGSGSGTDFTLTIDPVEADDTATYFCQQSWNDPFTFGSGTKLEIKRTVAAPSVFIFPPSDEQLKSGTASVVCLLNNFYPREAKVQWKVDNALQSGNSQESVTEQDSKDSTYSLSSTLTLSKADYEKHKVYACEVTHQGLSSPVTKSFNRGEC
[4]
  Fold change from rhIL-2 (NK-92), pSTAT5 titration: 28 fold
[2]
  Fold change from hIL-2 (NK-92): 4 fold
  Fold change from rhIL-2 (NK-92): 1 fold
[3]
  Fold change from rhIL-2 (TF1 + IL-2Rβ), pSTAT5 titration: 277 fold

B4: 1H3-hIgG1-L6-hIL-2 (D20W) (protein)
heavy: EVQLVESGGGLVQPGRSLKLSCAVSGFTFSDYAMAWVRQAPKKGLEWVATISYDGSRTYYRDSVKGRFTISRDNAKITLYLQMDSLRSEDTATYYCARHGSGYFDYWGQGVMVTVSS[not shown - about 450 residues with a human IgG1 Fc and changes]
light: DTVLTQSPALAVSPGERVTISCRASESVRTGVHWYQQKPGQQPKLLIYGASNLESGVPARFSGSGSGTDFTLTIDPVEADDTATYFCQQSWNDPFTFGSGTKLEIKRTVAAPSVFIFPPSDEQLKSGTASVVCLLNNFYPREAKVQWKVDNALQSGNSQESVTEQDSKDSTYSLSSTLTLSKADYEKHKVYACEVTHQGLSSPVTKSFNRGEC
[1]
  Fold change from rhIL-2 (TF1 + IL-2Rβ): > 10000 fold
[2]
  Fold change from hIL-2 (NK-92): 16 fold
[3]
  Fold change from rhIL-2 (TF1 + IL-2Rβ), pSTAT5 titration: > 10000 fold

B5: 1H3-hIgG1-L6-hIL-2 (D20F) (protein)
heavy: EVQLVESGGGLVQPGRSLKLSCAVSGFTFSDYAMAWVRQAPKKGLEWVATISYDGSRTYYRDSVKGRFTISRDNAKITLYLQMDSLRSEDTATYYCARHGSGYFDYWGQGVMVTVSS[not shown - about 450 residues with a human IgG1 Fc and changes]
light: DTVLTQSPALAVSPGERVTISCRASESVRTGVHWYQQKPGQQPKLLIYGASNLESGVPARFSGSGSGTDFTLTIDPVEADDTATYFCQQSWNDPFTFGSGTKLEIKRTVAAPSVFIFPPSDEQLKSGTASVVCLLNNFYPREAKVQWKVDNALQSGNSQESVTEQDSKDSTYSLSSTLTLSKADYEKHKVYACEVTHQGLSSPVTKSFNRGEC
[1]
  Fold change from rhIL-2 (TF1 + IL-2Rβ): > 10000 fold
[2]
  Fold change from hIL-2 (NK-92): 17 fold
[3]
  Fold change from rhIL-2 (TF1 + IL-2Rβ), pSTAT5 titration: > 10000 fold

B6: 1H3-hIgG1-L6-hIL-2 (D84K) (protein)
heavy: EVQLVESGGGLVQPGRSLKLSCAVSGFTFSDYAMAWVRQAPKKGLEWVATISYDGSRTYYRDSVKGRFTISRDNAKITLYLQMDSLRSEDTATYYCARHGSGYFDYWGQGVMVTVSS[not shown - about 450 residues with a human IgG1 Fc and changes]
light: DTVLTQSPALAVSPGERVTISCRASESVRTGVHWYQQKPGQQPKLLIYGASNLESGVPARFSGSGSGTDFTLTIDPVEADDTATYFCQQSWNDPFTFGSGTKLEIKRTVAAPSVFIFPPSDEQLKSGTASVVCLLNNFYPREAKVQWKVDNALQSGNSQESVTEQDSKDSTYSLSSTLTLSKADYEKHKVYACEVTHQGLSSPVTKSFNRGEC
[4]
  Fold change from rhIL-2 (NK-92), pSTAT5 titration: 14 fold
[2]
  Fold change from hIL-2 (NK-92): 2 fold
  Fold change from rhIL-2 (NK-92): 4 fold
[3]
  Fold change from rhIL-2 (TF1 + IL-2Rβ), pSTAT5 titration: 195 fold

B7: 1H3-hIgG1-L6-hIL-2 (N88D) (protein)
heavy: EVQLVESGGGLVQPGRSLKLSCAVSGFTFSDYAMAWVRQAPKKGLEWVATISYDGSRTYYRDSVKGRFTISRDNAKITLYLQMDSLRSEDTATYYCARHGSGYFDYWGQGVMVTVSS[not shown - about 450 residues with a human IgG1 Fc and changes]
light: DTVLTQSPALAVSPGERVTISCRASESVRTGVHWYQQKPGQQPKLLIYGASNLESGVPARFSGSGSGTDFTLTIDPVEADDTATYFCQQSWNDPFTFGSGTKLEIKRTVAAPSVFIFPPSDEQLKSGTASVVCLLNNFYPREAKVQWKVDNALQSGNSQESVTEQDSKDSTYSLSSTLTLSKADYEKHKVYACEVTHQGLSSPVTKSFNRGEC
[4]
  Fold change from rhIL-2 (NK-92), pSTAT5 titration: 21 fold
[2]
  Fold change from hIL-2 (NK-92): 2 fold
  Fold change from rhIL-2 (NK-92): 0 fold
[3]
  Fold change from rhIL-2 (TF1 + IL-2Rβ), pSTAT5 titration: 130 fold

B8: 1H3-hIgG1-L6-hIL-2 (N88R) (protein)
heavy: EVQLVESGGGLVQPGRSLKLSCAVSGFTFSDYAMAWVRQAPKKGLEWVATISYDGSRTYYRDSVKGRFTISRDNAKITLYLQMDSLRSEDTATYYCARHGSGYFDYWGQGVMVTVSS[not shown - about 450 residues with a human IgG1 Fc and changes]
light: DTVLTQSPALAVSPGERVTISCRASESVRTGVHWYQQKPGQQPKLLIYGASNLESGVPARFSGSGSGTDFTLTIDPVEADDTATYFCQQSWNDPFTFGSGTKLEIKRTVAAPSVFIFPPSDEQLKSGTASVVCLLNNFYPREAKVQWKVDNALQSGNSQESVTEQDSKDSTYSLSSTLTLSKADYEKHKVYACEVTHQGLSSPVTKSFNRGEC
[1]
  Agonistic Activity (TF1 + IL-2Rβ): 80%
  Fold change from rhIL-2 (TF1 + IL-2Rβ): 959 fold
[2]
  Fold change from hIL-2 (NK-92): 3 fold

B9: 1H3-hIgG1-L6-hIL-2 (R38E/I92T) (protein)
heavy: EVQLVESGGGLVQPGRSLKLSCAVSGFTFSDYAMAWVRQAPKKGLEWVATISYDGSRTYYRDSVKGRFTISRDNAKITLYLQMDSLRSEDTATYYCARHGSGYFDYWGQGVMVTVSS[not shown - about 450 residues with a human IgG1 Fc and changes]
light: DTVLTQSPALAVSPGERVTISCRASESVRTGVHWYQQKPGQQPKLLIYGASNLESGVPARFSGSGSGTDFTLTIDPVEADDTATYFCQQSWNDPFTFGSGTKLEIKRTVAAPSVFIFPPSDEQLKSGTASVVCLLNNFYPREAKVQWKVDNALQSGNSQESVTEQDSKDSTYSLSSTLTLSKADYEKHKVYACEVTHQGLSSPVTKSFNRGEC
[4]
  Fold change from hIL-2 (NK-92), pSTAT5 fixed conc.: 22 fold
[3]
  Fold change from hIL-2 (TF1 + IL-2Rβ), pSTAT5 fixed conc.: 1 fold

B10: 1H3-hIgG1-L6-hIL-2 (R38E/I92W) (protein)
heavy: EVQLVESGGGLVQPGRSLKLSCAVSGFTFSDYAMAWVRQAPKKGLEWVATISYDGSRTYYRDSVKGRFTISRDNAKITLYLQMDSLRSEDTATYYCARHGSGYFDYWGQGVMVTVSS[not shown - about 450 residues with a human IgG1 Fc and changes]
light: DTVLTQSPALAVSPGERVTISCRASESVRTGVHWYQQKPGQQPKLLIYGASNLESGVPARFSGSGSGTDFTLTIDPVEADDTATYFCQQSWNDPFTFGSGTKLEIKRTVAAPSVFIFPPSDEQLKSGTASVVCLLNNFYPREAKVQWKVDNALQSGNSQESVTEQDSKDSTYSLSSTLTLSKADYEKHKVYACEVTHQGLSSPVTKSFNRGEC
[4]
  Fold change from hIL-2 (NK-92), pSTAT5 fixed conc.: 23 fold
[3]
  Fold change from hIL-2 (TF1 + IL-2Rβ), pSTAT5 fixed conc.: 1 fold

B11: 1H3-hIgG1-L6-hIL-2 (R38E/I92Y) (protein)
heavy: EVQLVESGGGLVQPGRSLKLSCAVSGFTFSDYAMAWVRQAPKKGLEWVATISYDGSRTYYRDSVKGRFTISRDNAKITLYLQMDSLRSEDTATYYCARHGSGYFDYWGQGVMVTVSS[not shown - about 450 residues with a human IgG1 Fc and changes]
light: DTVLTQSPALAVSPGERVTISCRASESVRTGVHWYQQKPGQQPKLLIYGASNLESGVPARFSGSGSGTDFTLTIDPVEADDTATYFCQQSWNDPFTFGSGTKLEIKRTVAAPSVFIFPPSDEQLKSGTASVVCLLNNFYPREAKVQWKVDNALQSGNSQESVTEQDSKDSTYSLSSTLTLSKADYEKHKVYACEVTHQGLSSPVTKSFNRGEC
[4]
  Fold change from hIL-2 (NK-92), pSTAT5 fixed conc.: 21 fold
[3]
  Fold change from hIL-2 (TF1 + IL-2Rβ), pSTAT5 fixed conc.: 1 fold

B12: 1H3-hIgG1-L6-hIL-2 (R38E/I92V) (protein)
heavy: EVQLVESGGGLVQPGRSLKLSCAVSGFTFSDYAMAWVRQAPKKGLEWVATISYDGSRTYYRDSVKGRFTISRDNAKITLYLQMDSLRSEDTATYYCARHGSGYFDYWGQGVMVTVSS[not shown - about 450 residues with a human IgG1 Fc and changes]
light: DTVLTQSPALAVSPGERVTISCRASESVRTGVHWYQQKPGQQPKLLIYGASNLESGVPARFSGSGSGTDFTLTIDPVEADDTATYFCQQSWNDPFTFGSGTKLEIKRTVAAPSVFIFPPSDEQLKSGTASVVCLLNNFYPREAKVQWKVDNALQSGNSQESVTEQDSKDSTYSLSSTLTLSKADYEKHKVYACEVTHQGLSSPVTKSFNRGEC
[4]
  Fold change from hIL-2 (NK-92), pSTAT5 fixed conc.: 21 fold
[3]
  Fold change from hIL-2 (TF1 + IL-2Rβ), pSTAT5 fixed conc.: 1 fold
